# Measurements from patent publication US20240076343A1 (CEPHALON, published 2024).
# Positions count from the first letter of the chain named. In names and notes the source's numbering stands.
# T1: high-affinity hIL-2 receptor (IL-2Rαβγ) on NK-92 cells (human, UniProt P01589 22-272; P14784 27-551; P31785 23-369)
# T1 sequence 1: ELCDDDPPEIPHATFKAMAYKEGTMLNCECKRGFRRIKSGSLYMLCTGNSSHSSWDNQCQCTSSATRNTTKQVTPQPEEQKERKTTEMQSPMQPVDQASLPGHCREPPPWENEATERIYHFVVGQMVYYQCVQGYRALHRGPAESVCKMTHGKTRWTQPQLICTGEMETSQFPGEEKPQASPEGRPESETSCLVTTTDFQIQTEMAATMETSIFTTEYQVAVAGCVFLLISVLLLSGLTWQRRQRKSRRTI
# T1 sequence 2: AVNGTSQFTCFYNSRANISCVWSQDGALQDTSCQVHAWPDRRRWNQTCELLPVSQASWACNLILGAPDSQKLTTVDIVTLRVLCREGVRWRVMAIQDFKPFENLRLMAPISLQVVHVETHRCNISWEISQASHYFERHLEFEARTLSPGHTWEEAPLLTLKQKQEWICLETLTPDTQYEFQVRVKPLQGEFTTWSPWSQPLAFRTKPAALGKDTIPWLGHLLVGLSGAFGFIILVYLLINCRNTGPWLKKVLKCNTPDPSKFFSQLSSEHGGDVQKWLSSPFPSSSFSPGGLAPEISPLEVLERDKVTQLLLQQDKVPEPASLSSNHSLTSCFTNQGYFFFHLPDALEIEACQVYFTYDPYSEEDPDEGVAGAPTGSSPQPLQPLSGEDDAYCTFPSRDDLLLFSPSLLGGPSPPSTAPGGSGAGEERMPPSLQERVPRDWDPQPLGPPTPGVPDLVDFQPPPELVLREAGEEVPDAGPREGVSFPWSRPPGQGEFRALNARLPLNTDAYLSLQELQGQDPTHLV
# T1 sequence 3: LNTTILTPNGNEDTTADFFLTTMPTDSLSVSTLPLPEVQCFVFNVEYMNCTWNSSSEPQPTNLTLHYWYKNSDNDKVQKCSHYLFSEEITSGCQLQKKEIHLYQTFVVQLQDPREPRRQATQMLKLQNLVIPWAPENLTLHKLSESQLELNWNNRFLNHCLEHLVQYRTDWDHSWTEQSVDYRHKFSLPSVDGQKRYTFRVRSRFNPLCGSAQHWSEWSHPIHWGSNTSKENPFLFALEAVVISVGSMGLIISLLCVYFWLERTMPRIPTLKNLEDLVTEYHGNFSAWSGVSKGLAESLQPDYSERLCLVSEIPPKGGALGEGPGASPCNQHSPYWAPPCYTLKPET
# T2: intermediate-affinity hIL-2 receptor (IL-2Rβγ) on TF1+IL-2Rβ cells (human, UniProt P14784 27-551; P31785 23-369)
# T2 sequence 1: T1 sequence 2
# T2 sequence 2: T1 sequence 3
# B1: 1H3-hIgG4-df-hIL-2 (D20A/R38E) LC fusion (other)
# heavy: EVQLVESGGGLVQPGRSLKLSCAVSGFTFSDYAMAWVRQAPKKGLEWVATISYDGSRTYYRDSVKGRFTISRDNAKITLYLQMDSLRSEDTATYYCARHGSGYFDYWGQGVMVTVSSASTKGPSVFPLAPCSRSTSESTAALGCLVKDYFPEPVTVSWNSGALTSGVHTFPAVLQSSGLYSLSSVVTVPSSSLGTKTYTCNVDHKPSNTKVDKRV[not shown - human IgG4 Fc with S228P (EU numbers)]
# light: DTVLTQSPALAVSPGERVTISCRASESVRTGVHWYQQKPGQQPKLLIYGASNLESGVPARFSGSGSGTDFTLTIDPVEADDTATYFCQQSWNDPFTFGSGTKLEIKRTVAAPSVFIFPPSDEQLKSGTASVVCLLNNFYPREAKVQWKVDNALQSGNSQESVTEQDSKDSTYSLSSTLTLSKADYEKHKVYACEVTHQGLSSPVTKSFNRGEC[not shown - about 150 residues with changes]
# B2: 1H3-hIgG4-L6-hIL-2 (D20A/R38E) LC fusion (other)
# heavy: B1 heavy
# light: DTVLTQSPALAVSPGERVTISCRASESVRTGVHWYQQKPGQQPKLLIYGASNLESGVPARFSGSGSGTDFTLTIDPVEADDTATYFCQQSWNDPFTFGSGTKLEIKRTVAAPSVFIFPPSDEQLKSGTASVVCLLNNFYPREAKVQWKVDNALQSGNSQESVTEQDSKDSTYSLSSTLTLSKADYEKHKVYACEVTHQGLSSPVTKSFNRGECSGGGGS[not shown - about 150 residues with changes]
# B3: C51E6-5-hIgG4-df-hIL-2 (D20A/R38E) (other)
# heavy: QVQLVQSGSELKKPGASVKVSCKASGYSLYGTSMHWVRQAPGQGLEWMGYISPFTGRATYAQGFTGRFVFSLDTSVSTAYLQISSLKAEDTAVYYCARDYDYRYYYAMDYWGQGTTVTVSSASTKGPSVFPLAPCSRSTSESTAALGCLVKDYFPEPVTVSWNSGALTSGVHTFPAVLQSSGLYSLSSVVTVPSSSLGTKTYTCNVDHKPSNTKVDKRV[not shown - about 350 residues with a human IgG4 Fc and changes]
# light: EIVLTQSPDFQSVTPKEKVTITCTASESVPPQFLHWYQQKPDQSPKLLIYASRERASGVPSRFSGSGSGTDFTLTINSLEAEDAATYYCHQFHRSPLTFGGGTKLEIKRTVAAPSVFIFPPSDEQLKSGTASVVCLLNNFYPREAKVQWKVDNALQSGNSQESVTEQDSKDSTYSLSSTLTLSKADYEKHKVYACEVTHQGLSSPVTKSFNRGEC
# B4: H7-767 (other)
# heavy: EVQLLESGGGLVQPGGSLRLSCAASGFTFKSYAMHWVRQAPGKGLEWVSAIVYSGGSTYYADSVKGRFTISRDNSKNTLYLQMNSLRAEDTAVYYCAKYDRASYFYDAMDVWGQGTTVTVSS[not shown - human IgG1 constant region with L235A G237A (EU numbers)]APASSSTKKTQLQLEHLLLALQMILNGINNYKNPKLTEMLTFKFYMPKKATELKHLQCLEEELKPLEEVLNLAQSKNFHLRPRDLISNINVIVLELKGSETTFMCEYADETATIVEFLNRWITFAQSIISTLT
# light: EIVLTQSPGTLSLSPGERATLSCRASQSISSSFLAWYQQKPGQAPRLLIYDASDRATGIPDRFSGSGSGTDFTLTISRLEPEDFAVYYCQQYYDWPPLSFGGGTKVEIKRTVAAPSVFIFPPSDEQLKSGTASVVCLLNNFYPREAKVQWKVDNALQSGNSQESVTEQDSKDSTYSLSSTLTLSKADYEKHKVYACEVTHQGLSSPVTKSFNRGEC
# B5: 2H7-hIgG1-LAGA-df-hIL2 (T3A/R38E/I92S/C125A) (other)
# heavy: EVQLLESGGGLVQPGGSLRLSCAASGFTFKDYCMTWVRQAPGKGLEWVSAIVYSGGSTYYADSVKGRFTISRDNSKNTLYLQMNNLRAEDTAVYYCAKYTRASYFYDAMDVWGQGTTVTVSS[not shown - human IgG1 constant region with L235A G237A (EU numbers)]APASSSTKKTQLQLEHLLLDLQMILNGINNYKNPKLTEMLTFKFYMPKKATELKHLQCLEEELKPLEEVLNLAQSKNFHLRPRDLISNINVSVLELKGSETTFMCEYADETATIVEFLNRWITFAQSIISTLT
# light: B4 light with S30G, S31K, D54T, T57A, G58D, D61A, R78S
# B6: 2H7-hIgG1-LAGA-df-hIL2 (T3A/R38E/I92D/C125A) (other)
# heavy: EVQLLESGGGLVQPGGSLRLSCAASGFTFKDYCMTWVRQAPGKGLEWVSAIVYSGGSTYYADSVKGRFTISRDNSKNTLYLQMNNLRAEDTAVYYCAKYTRASYFYDAMDVWGQGTTVTVSS[not shown - human IgG1 constant region with L235A G237A (EU numbers)]APASSSTKKTQLQLEHLLLDLQMILNGINNYKNPKLTEMLTFKFYMPKKATELKHLQCLEEELKPLEEVLNLAQSKNFHLRPRDLISNINVDVLELKGSETTFMCEYADETATIVEFLNRWITFAQSIISTLT
# light: B4 light with S30G, S31K, D54T, T57A, G58D, D61A, R78S
# B7: 2H7-hIgG1-LAGA-df-hIL2 (T3A/H16E/R38E/C125A) (other)
# heavy: EVQLLESGGGLVQPGGSLRLSCAASGFTFKDYCMTWVRQAPGKGLEWVSAIVYSGGSTYYADSVKGRFTISRDNSKNTLYLQMNNLRAEDTAVYYCAKYTRASYFYDAMDVWGQGTTVTVSS[not shown - human IgG1 constant region with L235A G237A (EU numbers)]APASSSTKKTQLQLEELLLDLQMILNGINNYKNPKLTEMLTFKFYMPKKATELKHLQCLEEELKPLEEVLNLAQSKNFHLRPRDLISNINVIVLELKGSETTFMCEYADETATIVEFLNRWITFAQSIISTLT
# light: B4 light with S30G, S31K, D54T, T57A, G58D, D61A, R78S
# B8: 2H7-hIgG1-LAGA-df-hIL2 (T3A/D20S/R38E/C125A) (other)
# heavy: EVQLLESGGGLVQPGGSLRLSCAASGFTFKDYCMTWVRQAPGKGLEWVSAIVYSGGSTYYADSVKGRFTISRDNSKNTLYLQMNNLRAEDTAVYYCAKYTRASYFYDAMDVWGQGTTVTVSS[not shown - human IgG1 constant region with L235A G237A (EU numbers)]APASSSTKKTQLQLEHLLLSLQMILNGINNYKNPKLTEMLTFKFYMPKKATELKHLQCLEEELKPLEEVLNLAQSKNFHLRPRDLISNINVIVLELKGSETTFMCEYADETATIVEFLNRWITFAQSIISTLT
# light: B4 light with S30G, S31K, D54T, T57A, G58D, D61A, R78S
# B9: 1H3-hIgG4-L6-hIL-2 (D20Y) (other)
# heavy: EVQLVESGGGLVQPGRSLKLSCAVSGFTFSDYAMAWVRQAPKKGLEWVATISYDGSRTYYRDSVKGRFTISRDNAKITLYLQMDSLRSEDTATYYCARHGSGYFDYWGQGVMVTVSSASTKGPSVFPLAPCSRSTSESTAALGCLVKDYFPEPVTVSWNSGALTSGVHTFPAVLQSSGLYSLSSVVTVPSSSLGTKTYTCNVDHKPSNTKVDKRV[not shown - about 350 residues with a human IgG4 Fc and changes]
# light: DTVLTQSPALAVSPGERVTISCRASESVRTGVHWYQQKPGQQPKLLIYGASNLESGVPARFSGSGSGTDFTLTIDPVEADDTATYFCQQSWNDPFTFGSGTKLEIKRTVAAPSVFIFPPSDEQLKSGTASVVCLLNNFYPREAKVQWKVDNALQSGNSQESVTEQDSKDSTYSLSSTLTLSKADYEKHKVYACEVTHQGLSSPVTKSFNRGEC
# B10: 1H3-hIgG4-df-hIL-2 (D20A/R38E) (other)
# heavy: EVQLVESGGGLVQPGRSLKLSCAVSGFTFSDYAMAWVRQAPKKGLEWVATISYDGSRTYYRDSVKGRFTISRDNAKITLYLQMDSLRSEDTATYYCARHGSGYFDYWGQGVMVTVSSASTKGPSVFPLAPCSRSTSESTAALGCLVKDYFPEPVTVSWNSGALTSGVHTFPAVLQSSGLYSLSSVVTVPSSSLGTKTYTCNVDHKPSNTKVDKRV[not shown - about 350 residues with a human IgG4 Fc and changes]
# light: B9 light
# B11: 1H3-hIgG4-df-hIL-2 (D20Y) (other)
# heavy: EVQLVESGGGLVQPGRSLKLSCAVSGFTFSDYAMAWVRQAPKKGLEWVATISYDGSRTYYRDSVKGRFTISRDNAKITLYLQMDSLRSEDTATYYCARHGSGYFDYWGQGVMVTVSSASTKGPSVFPLAPCSRSTSESTAALGCLVKDYFPEPVTVSWNSGALTSGVHTFPAVLQSSGLYSLSSVVTVPSSSLGTKTYTCNVDHKPSNTKVDKRV[not shown - about 350 residues with a human IgG4 Fc and changes]
# light: B9 light
# B12: 1H3-hIgG4-L6-hIL-2 (D20A/R38E) (other)
# heavy: EVQLVESGGGLVQPGRSLKLSCAVSGFTFSDYAMAWVRQAPKKGLEWVATISYDGSRTYYRDSVKGRFTISRDNAKITLYLQMDSLRSEDTATYYCARHGSGYFDYWGQGVMVTVSSASTKGPSVFPLAPCSRSTSESTAALGCLVKDYFPEPVTVSWNSGALTSGVHTFPAVLQSSGLYSLSSVVTVPSSSLGTKTYTCNVDHKPSNTKVDKRV[not shown - about 350 residues with a human IgG4 Fc and changes]
# light: B9 light
# B13: 1H3-hIgG1-df-hIL-2 (D20Y) (other)
# heavy: EVQLVESGGGLVQPGRSLKLSCAVSGFTFSDYAMAWVRQAPKKGLEWVATISYDGSRTYYRDSVKGRFTISRDNAKITLYLQMDSLRSEDTATYYCARHGSGYFDYWGQGVMVTVSS[not shown - about 450 residues with a human IgG1 Fc and changes]
# light: B9 light
# Target: T1, high-affinity hIL-2 receptor (IL-2Rαβγ) …
# Assay: cell-based or functional assay
Fold change from rhIL-2 (NK-92) [fold],Agonistic Activity (NK-92) [%],Binder
> 10000,–,B1
> 10000,–,B2
4320,70,B3
> 10000,–,B4
9,–,B5
2720,–,B6
126,–,B7
6690,–,B8
> 10000,–,B9
~868,–,B10
> 10000,60,B11
~177,–,B12
~8540,90,B13

# Target: T2, intermediate-affinity hIL-2 receptor …
# Assay: cell-based or functional assay
Fold change from rhIL-2 (TF1 + IL-2Rβ) [fold],Agonistic Activity (TF1 + IL-2Rβ) [%],Binder
> 10000,–,B1
~2160,30,B2
> 10000,60,B3
> 10000,–,B4
30,–,B5
~3400,80,B6
122,–,B7
~9710,70,B8
> 10000,–,B9
> 10000,–,B10
> 10000,–,B11
> 10000,–,B12
> 10000,–,B13
